According to the supplement of paper PMC4967469:

Key:
BMS-708163 = compound: NC(=O)[C@@H](CCC(F)(F)F)N(Cc1ccc(-c2ncon2)cc1F)S(=O)(=O)c1ccc(Cl)cc1 [BMS-708163]; assay: Viability of human cancer cell lines after 72 h of drug (GDSC screen); conditions: top dose 5 µM; screen: GDSC drug entry 1072; top dose inferred
Experimental: (§1)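 Human cancer cell lines in 384-well plates, medium with 10% serum, drug for 72 h over a 256-fold dose range (nine 2-fold or five 4-fold steps up to the top dose). Adherent lines were fixed and stained with the nucleic acid dye Syto60, suspension lines read with resazurin; signal relative to control wells, capped at 0 and 100%. One two-parameter sigmoid per drug and line, fitted in a mixed model over all curves with the slope shared within a line.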

PAC-1 = compound: C=CCc1cccc(/C=N/NC(=O)CN2CCN(Cc3ccccc3)CC2)c1O [PAC-1]; assay: as above; conditions: top dose 2.56 µM
Experimental: as §1

| Cell Line | AUC (BMS-708163) | IC50 (BMS-708163) [nM] | AUC (PAC-1) | IC50 (PAC-1) [nM] |
| --- | --- | --- | --- | --- |
| HCC38 (breast, adherent) | 0.899 | > 5000 | 0.889 | > 2560 |
| HCC70 (breast, adherent) | 0.953 | > 5000 | 0.988 | > 2560 |
| HCC202 (breast, adherent) | 0.969 | > 5000 | 0.715 | 842 |
| HCC1143 (breast, adherent) | 0.955 | > 5000 | 0.877 | > 2560 |
| HCC1395 (breast, adherent) | 0.977 | > 5000 | 0.914 | > 2560 |
| HCC1419 (breast, adherent) | 0.926 | > 5000 | 0.875 | > 2560 |
| HCC1428 (breast, adherent) | 0.985 | > 5000 | 0.977 | > 2560 |
| HCC1569 (breast, adherent) | 0.914 | > 5000 | 0.872 | > 2560 |
| HCC1806 (breast, adherent) | 0.989 | > 5000 | 0.976 | > 2560 |
| HCC1937 (breast, adherent) | 0.955 | > 5000 | 0.981 | > 2560 |
| HCC1954 (breast, adherent) | 0.956 | > 5000 | 0.875 | > 2560 |
| HCC-15 (lung squamous cell carcinoma, adherent) | 0.979 | > 5000 | 0.982 | > 2560 |
| HCC-44 (lung adenocarcinoma, adherent) | 0.986 | > 5000 | 0.85 | 1870 |
| HCC-56 (large intestine, adherent) | 0.981 | > 5000 | 0.946 | > 2560 |
| HCC-827 (lung adenocarcinoma, adherent) | 0.967 | > 5000 | 0.984 | > 2560 |
| HCT-15 (large intestine, adherent) | 0.967 | > 5000 | 0.827 | 1700 |
| HCT-116 (large intestine, adherent) | 0.907 | > 5000 | 0.984 | > 2560 |
| HDQ-P1 (breast, adherent) | 0.972 | > 5000 | 0.864 | > 2560 |
| HEC-1 (endometrium, adherent) | 0.951 | > 5000 | 0.985 | > 2560 |
| HGC-27 (stomach, adherent) | 0.973 | > 5000 | 0.976 | > 2560 |
| HLE (liver, adherent) | 0.974 | > 5000 | 0.902 | > 2560 |
| HMV-II (melanoma, adherent) | 0.982 | > 5000 | 0.854 | > 2560 |
| HN (head and neck, adherent) | 0.981 | > 5000 | 0.985 | > 2560 |
| HO-1-N-1 (head and neck, adherent) | 0.98 | > 5000 | 0.976 | > 2560 |
| HO-1-u-1 (head and neck, adherent) | 0.979 | > 5000 | 0.967 | > 2560 |
| HOP-92 (large cell lung carcinoma, adherent) | 0.981 | > 5000 | 0.973 | > 2560 |

| Cell Line | AUC (BMS-708163) | IC50 (BMS-708163) [nM] | AUC (PAC-1) | IC50 (PAC-1) [nM] |
| --- | --- | --- | --- | --- |
| HOS (osteosarcoma, adherent) | 0.991 | > 5000 | 0.884 | 1980 |
| HPAC (pancreas, adherent) | 0.813 | 4200 | 0.859 | > 2560 |
| HPAF-II (pancreas, adherent) | 0.894 | > 5000 | 0.98 | > 2560 |
| HSC-2 (head and neck, adherent) | 0.923 | > 5000 | 0.97 | > 2560 |
| HSC-3 (head and neck, adherent) | 0.97 | > 5000 | 0.987 | > 2560 |
| HSC-4 (head and neck, adherent) | 0.954 | > 5000 | 0.971 | > 2560 |
| HT55 (large intestine, adherent) | 0.971 | > 5000 | 0.987 | > 2560 |
| HT-3 (cervix, adherent) | 0.971 | > 5000 | 0.936 | > 2560 |
| HT-29 (large intestine, adherent) | 0.916 | > 5000 | 0.846 | 1850 |
| HT-115 (large intestine, adherent) | 0.978 | > 5000 | 0.972 | > 2560 |
| HT-1080 (fibrosarcoma, adherent) | 0.893 | 4870 | 0.989 | > 2560 |
| HT-1197 (bladder, adherent) | 0.93 | > 5000 | 0.967 | > 2560 |
| HTC-C3 (thyroid, adherent) | 0.966 | > 5000 | 0.901 | > 2560 |
| HeLa (cervix, adherent) | 0.987 | > 5000 | 0.986 | > 2560 |
| Hep 3B2_1-7 (liver, adherent) | 0.95 | > 5000 | 0.862 | 2190 |
| Hs633T (fibrosarcoma, adherent) | 0.963 | > 5000 | 0.885 | 1910 |
| Hs683 (glioma, adherent) | 0.988 | > 5000 | 0.865 | 2310 |
| Hs766T (pancreas, adherent) | 0.98 | > 5000 | 0.974 | > 2560 |
| Hs939-T (melanoma, adherent) | 0.985 | > 5000 | 0.966 | > 2560 |
| Hs940-T (melanoma, adherent) | 0.959 | > 5000 | 0.896 | > 2560 |
| Hs-578-T (breast, adherent) | 0.987 | > 5000 | 0.987 | > 2560 |
| HuCCT1 (biliary tract, adherent) | 0.978 | > 5000 | 0.805 | 1470 |
| HuH-7 (liver, adherent) | 0.961 | > 5000 | 0.985 | > 2560 |
| HuO9 (osteosarcoma, adherent) | 0.912 | > 5000 | 0.984 | > 2560 |
| HuO-3N1 (osteosarcoma, adherent) | 0.915 | > 5000 | 0.962 | > 2560 |
| HuP-T3 (pancreas, adherent) | 0.971 | > 5000 | 0.873 | > 2560 |

| Cell Line | AUC (BMS-708163) | IC50 (BMS-708163) [nM] | AUC (PAC-1) | IC50 (PAC-1) [nM] |
| --- | --- | --- | --- | --- |
| HuP-T4 (pancreas, adherent) | 0.897 | > 5000 | 0.982 | > 2560 |
| IA-LM (large cell lung carcinoma, adherent) | 0.982 | > 5000 | 0.985 | > 2560 |
| IGR-1 (melanoma, adherent) | 0.665 | 842 | 0.943 | > 2560 |
| IGR-37 (melanoma, adherent) | 0.989 | > 5000 | 0.981 | > 2560 |
| IHH-4 (thyroid, semi-adherent) | 0.989 | > 5000 | 0.982 | > 2560 |
| IM-95 (stomach, adherent) | 0.986 | > 5000 | 0.867 | > 2560 |
| IPC-298 (melanoma, adherent) | 0.98 | > 5000 | 0.97 | > 2560 |
| J82 (bladder, adherent) | 0.955 | > 5000 | 0.848 | 1900 |
| JEG-3 (urogenital system, adherent) | 0.938 | > 5000 | 0.972 | > 2560 |
| JHH-1 (liver, adherent) | 0.97 | > 5000 | 0.973 | > 2560 |
| JHH-2 (liver, adherent) | 0.981 | > 5000 | 0.986 | > 2560 |
| JHH-4 (liver, adherent) | 0.986 | > 5000 | 0.925 | > 2560 |
| JHH-6 (liver, adherent) | 0.983 | > 5000 | 0.987 | > 2560 |
| JHH-7 (liver, adherent) | 0.989 | > 5000 | 0.93 | > 2560 |
| JHU-011 (head and neck, adherent) | 0.978 | > 5000 | 0.849 | 1870 |
| JHU-022 (head and neck, adherent) | 0.97 | > 5000 | 0.962 | > 2560 |
| JHU-029 (head and neck, adherent) | 0.959 | > 5000 | 0.814 | 1810 |
| JIMT-1 (breast, adherent) | 0.983 | > 5000 | 0.978 | > 2560 |
| JSC-1 (B-cell lymphoma, suspension) | 0.985 | > 5000 | 0.904 | > 2560 |
| K2 (melanoma, adherent) | 0.982 | > 5000 | 0.977 | > 2560 |
| KARPAS-620 (haematopoietic neoplasm, suspension) | 0.991 | > 5000 | 0.939 | > 2560 |
| KLE (endometrium, adherent) | 0.956 | > 5000 | 0.954 | > 2560 |
| KMH-2 (thyroid, adherent) | 0.985 | > 5000 | 0.925 | > 2560 |
| KMRC-1 (kidney, adherent) | 0.987 | > 5000 | 0.984 | > 2560 |
| KMRC-20 (kidney, adherent) | 0.983 | > 5000 | 0.988 | > 2560 |

By IC50 is meant the dose at which the fit gives 50% viability; a limit (>, <) means that the fit lies beyond the doses tested. AUC is the area under the same curve over the 256-fold range up to the top dose, as a fraction; it is 1 without any effect and falls as sensitivity rises. For some assays here: Where the top dose is marked as inferred, it was calculated from the reported fits. For some assays here: Drugs with an entry number were screened twice under separate entries, and the two screens often disagree.
